The list shows a part of the results. Single values are uncertain, as repeats are few or missing.
Each molecule was assayed on A101D (assay: cell count relative to DMSO control; melanoma cells; higher = more viable cells). Conditions: library dose: standard library concentration; 72 h.
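Note: cells treated in 1,536-well plates, then fixed and DAPI-stained, with nuclei counted from automated high-throughput microscope images.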

Structure (SMILES) | cell count
O=C1NC(=O)/C(=C/c2ccc(-c3ccc(F)cc3O)o2)S1 + O=C(Oc1ccc([N+](=O)[O-])cc1)N1CCC(C(O)(c2ccc3c(c2)OCO3)c2ccc3c(c2)OCO3)CC1 [JZL184] (first compound 5 µM, partner dose 5 µM) | 102%
Cn1c(Nc2ccc(C(F)(F)F)cc2)nc2cc(Oc3ccnc(-c4ncc(C(F)(F)F)[nH]4)c3)ccc21 + C/C(O)=C(\C#N)C(=O)Nc1cc(Br)ccc1Br [LFM-A13] (first compound 0.4 µM, partner dose 10 µM) | 63.6%
COCC[n+]1c2c(n(Cc3cnccn3)c1C)C(=O)c1ccccc1C2=O + C/C(O)=C(\C#N)C(=O)Nc1cc(Br)ccc1Br [LFM-A13] (first compound 0.002 µM, partner dose 10 µM) | 79.7%
Cc1nc(Nc2ncc(C(=O)Nc3c(C)cccc3Cl)s2)cc(N2CCN(CCO)CC2)n1 [dasatanib] + C/C(O)=C(\C#N)C(=O)Nc1cc(Br)ccc1Br [LFM-A13] (first compound 0.02 µM, partner dose 10 µM) | 68.8%
C[C@@H]1CCN(C(=O)CC#N)C[C@@H]1N(C)c1ncnc2[nH]ccc12 + Cc1cc(SCc2sc(-c3ccc(C(F)(F)F)c(F)c3)nc2C)ccc1OCC(=O)O [GW0742] (first compound 5 µM, partner dose 10 µM) | 99.9%
COCC[n+]1c2c(n(Cc3cnccn3)c1C)C(=O)c1ccccc1C2=O + Cc1cc(SCc2sc(-c3ccc(C(F)(F)F)c(F)c3)nc2C)ccc1OCC(=O)O [GW0742] (first compound 0.002 µM, partner dose 10 µM) | 75.5%
CC(C)C[C@H](NC(=O)[C@H](Cc1ccccc1)NC(=O)c1cnccn1)B(O)O [Bortezomib] + C/C(O)=C(\C#N)C(=O)Nc1cc(Br)ccc1Br [LFM-A13] (first compound 0.005 µM, partner dose 10 µM) | 15.8%
Oc1cc(-c2nc(-c3ccccc3)[nH]c2-c2ccncc2)ccc1Cl + O=C(Oc1ccc([N+](=O)[O-])cc1)N1CCC(C(O)(c2ccc3c(c2)OCO3)c2ccc3c(c2)OCO3)CC1 [JZL184] (first compound 1 µM, partner dose 5 µM) | 61.5%

What follows are molecules tested on A2058 in the same assay as above. Conditions: library dose: standard library concentration; 72 h.

Structure (SMILES) | cell count
Cc1nc(Nc2ncc(C(=O)Nc3c(C)cccc3Cl)s2)cc(N2CCN(CCO)CC2)n1 [dasatanib] + Cc1cc(SCc2sc(-c3ccc(C(F)(F)F)c(F)c3)nc2C)ccc1OCC(=O)O [GW0742] (first compound 0.02 µM, partner dose 10 µM) | 75.7%
C#Cc1cccc(Nc2ncnc3cc(OCCOC)c(OCCOC)cc23)c1 [erlotinib] + O=C(Oc1ccc([N+](=O)[O-])cc1)N1CCC(C(O)(c2ccc3c(c2)OCO3)c2ccc3c(c2)OCO3)CC1 [JZL184] (first compound 4 µM, partner dose 5 µM) | 86.2%
O=C(O)c1ccc2c(c1)nc(Nc1cccc(Cl)c1)c1ccncc12 + Cc1cc(SCc2sc(-c3ccc(C(F)(F)F)c(F)c3)nc2C)ccc1OCC(=O)O [GW0742] (first compound 2 µM, partner dose 10 µM) | 85.1%
COc1cc2ncnc(Nc3ccc(Oc4ccccc4)cc3)c2cc1OC + C/C(O)=C(\C#N)C(=O)Nc1cc(Br)ccc1Br [LFM-A13] (first compound 10 µM, partner dose 10 µM) | 109%
CN1CCN(c2ccc3nc(-c4c(N)c5c(F)cccc5[nH]c4=O)[nH]c3c2)CC1 [Dovitinib] + C/C(O)=C(\C#N)C(=O)Nc1cc(Br)ccc1Br [LFM-A13] (first compound 0.5 µM, partner dose 10 µM) | 31.9%
C=CCn1c(=O)c2cnc(Nc3ccc(N4CCN(C)CC4)cc3)nc2n1-c1cccc(C(C)(C)O)n1 + Cc1cc(SCc2sc(-c3ccc(C(F)(F)F)c(F)c3)nc2C)ccc1OCC(=O)O [GW0742] (first compound 0.1 µM, partner dose 10 µM) | 87.5%
COc1ccc(COc2ccc(Cc3cnc(N)nc3N)cc2OC)cc1 + C/C(O)=C(\C#N)C(=O)Nc1cc(Br)ccc1Br [LFM-A13] (first compound 5 µM, partner dose 10 µM) | 112%
O=C(O)C(=O)Nc1sc2c(c1C(=O)O)CCNC2 + C/C(O)=C(\C#N)C(=O)Nc1cc(Br)ccc1Br [LFM-A13] (first compound 8.33333 µM, partner dose 10 µM) | 108%
COc1cc(N2CCC(N3CCN(C)CC3)CC2)ccc1Nc1ncc(Cl)c(Nc2ccccc2S(=O)(=O)C(C)C)n1 + O=C(Oc1ccc([N+](=O)[O-])cc1)N1CCC(C(O)(c2ccc3c(c2)OCO3)c2ccc3c(c2)OCO3)CC1 [JZL184] (first compound 0.4 µM, partner dose 5 µM) | 51.3%
O=C(CCCCCCC(=O)Nc1ccccc1)NO [vorinostat] + Cc1cc(SCc2sc(-c3ccc(C(F)(F)F)c(F)c3)nc2C)ccc1OCC(=O)O [GW0742] (first compound 0.4 µM, partner dose 10 µM) | 84.1%
C[C@@H]1CCN(C(=O)CC#N)C[C@@H]1N(C)c1ncnc2[nH]ccc12 + C/C(O)=C(\C#N)C(=O)Nc1cc(Br)ccc1Br [LFM-A13] (first compound 5 µM, partner dose 10 µM) | 128%
Cc1cc(Nc2cc(N3CCN(C)CC3)nc(Sc3ccc(NC(=O)C4CC4)cc3)n2)n[nH]1 [Tozasertib] + C/C(O)=C(\C#N)C(=O)Nc1cc(Br)ccc1Br [LFM-A13] (first compound 0.03 µM, partner dose 10 µM) | 88.9%
Oc1cc(-c2nc(-c3ccccc3)[nH]c2-c2ccncc2)ccc1Cl + C/C(O)=C(\C#N)C(=O)Nc1cc(Br)ccc1Br [LFM-A13] (first compound 1 µM, partner dose 10 µM) | 92.1%
Nc1ccn([C@@H]2O[C@H](CO)[C@@H](O)C2(F)F)c(=O)n1 [gemcitabine] + O=C(Oc1ccc([N+](=O)[O-])cc1)N1CCC(C(O)(c2ccc3c(c2)OCO3)c2ccc3c(c2)OCO3)CC1 [JZL184] (first compound 0.002 µM, partner dose 5 µM) | 52.1%
Clc1ccc(Nc2nnc(Cc3ccncc3)c3ccccc23)cc1 [vatalanib] + C/C(O)=C(\C#N)C(=O)Nc1cc(Br)ccc1Br [LFM-A13] (first compound 10 µM, partner dose 10 µM) | 73%
c1cc(-c2cnn3cc(-c4ccc(OCCN5CCCCC5)cc4)cnc23)ccn1 [Dorsomorphin] + O=C(Oc1ccc([N+](=O)[O-])cc1)N1CCC(C(O)(c2ccc3c(c2)OCO3)c2ccc3c(c2)OCO3)CC1 [JZL184] (first compound 2 µM, partner dose 5 µM) | 86.1%
CO[C@H]1C[C@@H]2CC[C@@H](C)[C@@](O)(O2)C(=O)C(=O)N2CCCC[C@H]2C(=O)O[C@H]([C@H](C)C[C@@H]2CC[C@@H](OCCO)[C@H](OC)C2)CC(=O)[C@H](C)/C=C(\C)[C@@H](O)[C@@H](OC)C(=O)[C@H](C)C[C@H](C)/C=C/C=C/C=C/1C [everolimus] + C/C(O)=C(\C#N)C(=O)Nc1cc(Br)ccc1Br [LFM-A13] (first compound 0.1 µM, partner dose 10 µM) | 66.5%
C=CCn1c(=O)c2cnc(Nc3ccc(N4CCN(C)CC4)cc3)nc2n1-c1cccc(C(C)(C)O)n1 + O=C(Oc1ccc([N+](=O)[O-])cc1)N1CCC(C(O)(c2ccc3c(c2)OCO3)c2ccc3c(c2)OCO3)CC1 [JZL184] (first compound 0.1 µM, partner dose 5 µM) | 88.2%
O=C(CCCCCCC(=O)Nc1ccccc1)NO [vorinostat] + C/C(O)=C(\C#N)C(=O)Nc1cc(Br)ccc1Br [LFM-A13] (first compound 0.4 µM, partner dose 10 µM) | 98.8%
Clc1ccc(Nc2nnc(Cc3ccncc3)c3ccccc23)cc1 [vatalanib] + O=C(Oc1ccc([N+](=O)[O-])cc1)N1CCC(C(O)(c2ccc3c(c2)OCO3)c2ccc3c(c2)OCO3)CC1 [JZL184] (first compound 10 µM, partner dose 5 µM) | 94.2%
CO[C@H]1C[C@@H]2CC[C@@H](C)[C@@](O)(O2)C(=O)C(=O)N2CCCC[C@H]2C(=O)O[C@H]([C@H](C)C[C@@H]2CC[C@@H](OCCO)[C@H](OC)C2)CC(=O)[C@H](C)/C=C(\C)[C@@H](O)[C@@H](OC)C(=O)[C@H](C)C[C@H](C)/C=C/C=C/C=C/1C [everolimus] + Cc1cc(SCc2sc(-c3ccc(C(F)(F)F)c(F)c3)nc2C)ccc1OCC(=O)O [GW0742] (first compound 0.1 µM, partner dose 10 µM) | 79.7%
C#Cc1cccc(Nc2ncnc3cc(OCCOC)c(OCCOC)cc23)c1 [erlotinib] + C/C(O)=C(\C#N)C(=O)Nc1cc(Br)ccc1Br [LFM-A13] (first compound 4 µM, partner dose 10 µM) | 94.6%
O=C(O)C(=O)Nc1sc2c(c1C(=O)O)CCNC2 + O=C(Oc1ccc([N+](=O)[O-])cc1)N1CCC(C(O)(c2ccc3c(c2)OCO3)c2ccc3c(c2)OCO3)CC1 [JZL184] (first compound 8.33333 µM, partner dose 5 µM) | 117%
Cc1cc(Nc2cc(N3CCN(C)CC3)nc(Sc3ccc(NC(=O)C4CC4)cc3)n2)n[nH]1 [Tozasertib] + O=C(Oc1ccc([N+](=O)[O-])cc1)N1CCC(C(O)(c2ccc3c(c2)OCO3)c2ccc3c(c2)OCO3)CC1 [JZL184] (first compound 0.03 µM, partner dose 5 µM) | 80.1%
